Values of other authors as cited in article PMC11006913.
Changes are numbered by the printed parent chain. This is one part of the list.

Experiments:
Settings in all cases: PBM; conditions not shown; double strand, one strand shown; scale: upbm affinity estimate (log intensity, higher = more binding, comparable within an allelic series)
ARX (Homo sapiens) = ARX (Homo sapiens) (UniProt Q96QS3)
ARX L343Q (Homo sapiens) = ARX L343Q (Homo sapiens) (UniProt Q96QS3)
ARX P353L (Homo sapiens) = ARX P353L (Homo sapiens) (UniProt Q96QS3)
ARX P353R (Homo sapiens) = ARX P353R (Homo sapiens) (UniProt Q96QS3)
ARX R332H (Homo sapiens) = ARX R332H (Homo sapiens) (UniProt Q96QS3)
ARX T333N (Homo sapiens) = ARX T333N (Homo sapiens) (UniProt Q96QS3)
[1] = target: T1, HESX1 E149K (Homo sapiens) (UniProt Q9UBX0)
T1 sequence: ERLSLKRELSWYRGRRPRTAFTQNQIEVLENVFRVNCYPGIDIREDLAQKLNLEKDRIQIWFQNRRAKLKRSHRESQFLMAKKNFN

[2] = target: T2, HESX1 N125S (Homo sapiens) (UniProt Q9UBX0)
T2 sequence: T1 sequence with N31S, K55E

[3] = target: T3, HESX1 R160C (Homo sapiens) (UniProt Q9UBX0)
T3 sequence: T1 sequence with K55E, R66C

[4] = target: HOXD13 I297V (Homo sapiens) (UniProt P35453)
[5] = target: HOXD13 I322L (Homo sapiens) (UniProt P35453)
[6] = target: HOXD13 N298S (Homo sapiens) (UniProt P35453)
[7] = target: HOXD13 Q325K (Homo sapiens) (UniProt P35453)
[8] = target: HOXD13 Q325R (Homo sapiens) (UniProt P35453)
[9] = target: HOXD13 R306W (Homo sapiens) (UniProt P35453)
[10] = target: HOXD13 S316C (Homo sapiens) (UniProt P35453)
ISX (Homo sapiens) = ISX (Homo sapiens) (UniProt Q2M1V0)
ISX R83Q (Homo sapiens) = ISX R83Q (Homo sapiens) (UniProt Q2M1V0)
[11] = target: PROP1 R112Q (Homo sapiens) (UniProt O75360)
[12] = target: PROP1 R99Q (Homo sapiens) (UniProt O75360)

Sequence | binding signal (ARX (Homo sapiens)) | binding signal (ARX L343Q (Homo sapiens)) | binding signal (ARX P353L (Homo sapiens)) | binding signal (ARX P353R (Homo sapiens)) | binding signal (ARX R332H (Homo sapiens)) | binding signal (ARX T333N (Homo sapiens)) | binding signal [1] | binding signal [2] | binding signal [3] | binding signal [4] | binding signal [5] | binding signal [6] | binding signal [7] | binding signal [8] | binding signal [9] | binding signal [10] | binding signal (ISX (Homo sapiens)) | binding signal (ISX R83Q (Homo sapiens)) | binding signal [11] | binding signal [12]
CCCTCCCG [8-mer CCCTCCCG] | 9.99 | 10 | 10 | 10 | 10.1 | 10.2 | 9.88 | 7.9 | 10.1 | 9.26 | 9.38 | 9.13 | 9.52 | 9.3 | 9.38 | 9.32 | 9.71 | 9.61 | – | –
AATTAGTG [8-mer AATTAGTG] | 13 | 11 | 12.5 | 10.8 | 11 | 12.1 | 11.5 | 11.6 | 10.3 | – | – | – | – | – | – | – | 14.9 | 13.9 | 12.7 | 12.3
CGCGCTCC [8-mer CGCGCTCC] | 10.2 | 10.2 | 10.1 | 10.1 | 10.2 | 10.2 | – | – | – | – | – | – | – | – | – | – | – | – | – | –
GCCAATTA [8-mer GCCAATTA] | 13 | 10.9 | 12.8 | 10.7 | 11 | 12.3 | 12 | 13.3 | 10.3 | 11.4 | – | 11.6 | – | – | – | 11.1 | 15.4 | 14.8 | 12.9 | 12.5
AATTAATA [8-mer AATTAATA] | 12.8 | 11 | 12.4 | 10.8 | 11.2 | 12.1 | 11.4 | 11.7 | 10.4 | 12.4 | 11.6 | 12.7 | 12 | 12.2 | 11.9 | 12.4 | 15 | 14 | 12.7 | 12.1
AATTAATC [8-mer AATTAATC] | 12.8 | 10.9 | 12.4 | 10.8 | 11.1 | 12.1 | 11.5 | 11.5 | 10.4 | – | – | – | – | – | – | – | 14.9 | 13.8 | 12.8 | 12.1
ATAATTAT [8-mer ATAATTAT] | 12.9 | 11.1 | 12.4 | 11 | 11.2 | 12.1 | 11.8 | 12.8 | 10.5 | – | – | – | – | 12 | – | – | 15.1 | 13.6 | 12.8 | 12.3
